From PubChem BioAssay AID686978 (National Center for Advancing Translational Sciences (NCATS), 2013)
Among all 420,000 compounds or so, about 64,000 (15%) were called active. Inconclusive means that the source gave no clear call. Such entries were picked first, then a sample of the others. Calls follow the shape of the dose curve; as a rule, active = well fitted inhibition curve with a large enough effect; inconclusive = small, poorly fitted or top-dose-only effect; inactive = flat fitted curve, though single readings scatter. No potency is given beside an inconclusive call; the fits are too rough.

Assay: qHTS for Inhibitors of human tyrosyl-DNA phosphodiesterase 1 (TDP1): qHTS in cells in absence of CPT; also: nearly all actives have a fitted effect of over 55% in size
Conditions: DT40 Tdp1-/- hTDP1 cells, no CPT, ATP luminescence, 48 h; activity change, negative = growth inhibition: at 46.2 µM (top of the series) unless noted
How it was run: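 No-CPT arm: Tdp1-/-;hTDP1 DT40 cells (400/well) plus compounds, incubated ≥48 hr at 37 °C. Readout CellTiter-Glo luminescence.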
% is scaled to controls: 0 for no effect and ±100 for the full control effect; potency is read from the fitted curve at half-maximal effect; tags tell the direction and shape of the fitted curve.

SMILES | activity change, negative = growth inhibition | Potency
c1csc(-c2nnc(COc3ccc4c(c3)OCO4)o2)c1 | inactive: 0.933% | 
CC(C)=N/N=C(/c1ccc([N+](=O)[O-])cc1)C12CN3CN(CN(C3)C1)C2 |  | inconclusive [inhibitor, partial curve]
O=C(NCc1ccco1)C(c1ccc(F)cc1)N(C(=O)Cc1cccs1)c1cccnc1 (configuration not stated) | inactive: -20% | 
CC1CCCC(C)N1S(=O)(=O)c1ccc(Cl)cc1 (configuration not stated) |  | inconclusive [inhibitor, single point]
CCOc1ccc(OCC)c(NC(=O)C2CCCN(S(=O)(=O)c3ccc4c(c3)oc(=O)n4C)C2)c1 (configuration not stated) |  | inconclusive [inhibitor, full curve, poor fit]
O=C(c1ccc2c(c1)CCC2)N1CCN(Cc2c(F)cccc2Cl)CC1 |  | inconclusive [inhibitor, single point]
N#Cc1c(NC(=S)NC(=O)c2ccccc2)sc2c1CCCC2 |  | inconclusive [inhibitor, single point]
CCCc1cc2c(cc1NC(=O)c1ccc(Br)cc1)OCO2 | inconclusive: -30.3% [inhibitor] | 
CCSc1nnc(NC(=O)C2CC=CCC2C(=O)O)s1 (configuration not stated) | inactive: -1.44% | 
CCn1c(SCc2nc3ccccc3s2)nnc1-c1ccccc1 |  | inconclusive [inhibitor, single point]
COc1ccc(-c2c(-c3cc(OC)cc(OC)c3)n(C)c3ccc(-c4cnc(N)nc4)cc23)cc1 |  | inconclusive [inhibitor, partial curve]
Cc1ccc(NC(=O)C2CCCN(C(=O)c3ccc(Cl)cc3)C2)cc1 (configuration not stated) |  | inconclusive [inhibitor, single point]
CCN1c2ccccc2-n2cccc2C12CCN(C(=O)Nc1ccccc1C(F)(F)F)CC2 |  | inconclusive [inhibitor, single point]
COc1cccc(/C=N/NC(=O)CNC(=O)c2cccs2)c1O |  | active: 9.2 µM
COc1ccc(C2Nc3ccc(NC(=O)CO)cc3C(=O)N2Cc2cccc(Cl)c2)cc1COc1ccc(NC(C)=O)cc1 (configuration not stated) |  | active: 11.2 µM
CC(=O)N1N=C(c2ccc3ccccc3c2)OC12CCCC2 |  | inconclusive [inhibitor, single point]
CC(=O)Nc1ccc(Nc2ncnc3c2c(-c2ccccc2)cn3-c2ccccc2)cc1 |  | active: 18.4 µM
Cc1c(C(=O)Nc2cccc(Oc3ccccc3)c2)sc(=O)n1Cc1ccc(F)cc1 |  | inconclusive [inhibitor, single point]
O=C(CN(c1ccc(Br)cc1)S(=O)(=O)c1ccc(Cl)c([N+](=O)[O-])c1)NCC1CCCO1 (configuration not stated) |  | inconclusive [inhibitor, single point]
CN(CC(=O)Nc1ccccc1Br)C(=O)c1ccc(-c2ccc(Cl)cc2)o1 |  | inconclusive [inhibitor, single point]
O=C(Cn1c(-c2cscn2)nc2ccccc21)Nc1ccc2ccccc2c1 |  | inconclusive [inhibitor, single point]

SMILES | activity change, negative = growth inhibition | Potency
CCOC(=O)C1CCN(C(=O)COC(=O)c2oc3ccc(OC)cc3c2C)CC1 |  | inconclusive [inhibitor, single point]
Cc1cc(C)cc(-n2c(SCC(=O)N3CCc4ccccc43)nc3c([nH]c4ccccc43)c2=O)c1 | inactive: 8% | 
O=C(Nc1ccc(F)c(Cl)c1)N1CCN(C(=O)c2nsc3ccccc23)CC1 |  | inconclusive [inhibitor, single point]
CC(C)c1ccc(N(CC(=O)NCCc2ccccc2)C(=O)c2csnn2)cc1 |  | inconclusive [inhibitor, single point]
C=CCOc1ccc(/C=C/C(=O)Nc2ccc(C(=O)NC)cc2)cc1 |  | inconclusive [inhibitor, partial curve]
Cc1cc(N2CCN(c3ccccc3Cl)CC2)n2cc(-c3ccccc3)nc2n1 |  | inconclusive [inhibitor, single point]
CC1=NCCN1S(=O)(=O)c1c(C(C)C)cc(C(C)C)cc1C(C)C |  | inconclusive [inhibitor, partial curve]
COc1ccc(NC(=O)CNC(=O)CC23CC4CC(CC(C4)C2)C3)c(OC)c1 |  | inconclusive [inhibitor, single point]
CC1(C)CC(=O)C(N=Nc2ccc(Br)cc2)=C(O)C1 |  | inconclusive [inhibitor, single point]
Cc1ccc(OC(C)c2nnc(N)s2)cc1Cl (configuration not stated) |  | inconclusive [inhibitor, single point]
CCCCCCn1c(=O)n2n(c1=O)[C@@H]1CN(S(=O)(=O)c3ccc(C)cc3)C[C@]1(O)[C@@H](OC(=O)NCc1ccccc1)C2 |  | inconclusive [inhibitor, single point]
Cc1ccc(NC(=S)NC2CCSc3ccccc32)cc1C (configuration not stated) |  | inconclusive [inhibitor, single point]
CCOc1cc(/C=N/NC(=O)c2c(C)nc3ccc(Cl)cn23)ccc1O |  | active: 8.2 µM
CC1Cc2ccccc2N1C(=O)c1cc2c(=O)n3ccccc3nc2n1C (configuration not stated) |  | inconclusive [inhibitor, single point]
CCNC(=S)N(CCc1c(C)[nH]c2ccc(C)cc12)Cc1cccnc1 |  | active: 29.1 µM
CCOC(=O)C1=NN(C(C)=O)C2(CC(=O)N(c3cccc(C)c3)C2=O)C1 (configuration not stated) | inactive: -25.8% | 
CCc1cccc(OCC(O)Cn2c(N3CCCCC3)nc3c2c(=O)[nH]c(=O)n3C)c1 (configuration not stated) |  | active: 7.31 µM
C[C@@H](OC(=O)N1CCCCC1)[C@H]1O[C@]2(C)CCCC[C@H]1O2 | inactive: -7.73% | 
COc1ccc(Cl)cc1-c1cc(C(=O)Nc2ccc(C)c(NS(C)(=O)=O)c2)[nH]n1 |  | active: 20.6 µM
CCOC(=O)c1c(C)[nH]c(C)c1C(=O)COC(=O)c1c(OC)cccc1OC |  | inconclusive [inhibitor, single point]
CCOc1ccc(S(=O)(=O)NCCC(=O)N(C)CC(=O)Nc2ccc(N3CCOCC3)cc2)cc1 |  | inconclusive [inhibitor, single point]
